# This is one part of the list.
# Columns and labels:
# Test in all cases: glycan array binding signal (z-score within array); higher = stronger binding
# Details in all cases: glycan notation: IUPAC condensed, linker removed
# [1] = target: GlcNAc(b1-4)GlcNAc(b1-4)GlcNAc(b1-4)GlcNAc(b1-4)GlcNAc(b1-4)GlcNAc
# Summary of the method: (§1)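 Negative Z-scores can be read as non-binding. The Z-score is calculated within each array and then averaged across arrays of one protein sequence at different concentrations or buffers and across linkers. Arrays, 3228 in all, were curated from the Consortium for Functional Glycomics database and kept only where the protein sequence was available.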
# [2] = target: GlcNAc(b1-4)[GlcNAc(b1-6)]GalNAc
# Summary of the method: as §1
# [3] = target: GlcNAc(b1-6)Gal(b1-4)GlcNAc
# Summary of the method: as §1
# [4] = target: GlcNAc(b1-6)GalNAc
# Summary of the method: as §1
# [5] = target: GlcNAc6S(b1-3)Gal(b1-4)GlcNAc
# Summary of the method: as §1
# [6] = target: Kdn(a2-3)Gal(b1-3)GalNAc
# Summary of the method: as §1
# [7] = target: Kdn(a2-3)Gal(b1-3)GlcNAc
# Summary of the method: as §1
# [8] = target: Kdn(a2-3)Gal(b1-4)Glc
# Summary of the method: as §1
# [9] = target: Kdn(a2-3)Gal(b1-4)GlcNAc
# Summary of the method: as §1
# [10] = target: Kdn(a2-3)Gal(b1-4)[Fuc(a1-3)]GlcNAc
# Summary of the method: as §1
# [11] = target: Kdn(a2-6)Gal(b1-4)GlcNAc
# Summary of the method: as §1
# [12] = target: Man(a1-2)Man(a1-2)Man(a1-3)Man
# Summary of the method: as §1
# [13] = target: Man(a1-2)Man(a1-2)Man(a1-6)[Man(a1-3)]Man
# Summary of the method: as §1
# [14] = target: Man(a1-2)Man(a1-3)Man
# Summary of the method: as §1
# [15] = target: Man(a1-2)Man(a1-3)[Man(a1-2)Man(a1-6)]Man
# Summary of the method: as §1
# [16] = target: Man(a1-2)Man(a1-3)[Man(a1-2)Man(a1-6)]Man(a1-6)[Man(a1-2)Man(a1-2)Man(a1-3)]Man
# Summary of the method: as §1
# [17] = target: Man(a1-2)Man(a1-3)[Man(a1-2)Man(a1-6)]Man(a1-6)[Man(a1-2)Man(a1-2)Man(a1-3)]Man(b1-4)GlcNAc(b1-4)GlcNAc
# Summary of the method: as §1
# [18] = target: Man(a1-2)Man(a1-3)[Man(a1-6)]Man(a1-6)[Man(a1-2)Man(a1-3)]Man(b1-4)GlcNAc(b1-4)GlcNAc
# Summary of the method: as §1
# [19] = target: Man(a1-2)Man(a1-6)[Man(a1-3)]Man(a1-6)[Man(a1-2)Man(a1-2)Man(a1-3)]Man
# Summary of the method: as §1
# [20] = target: Man(a1-2)Man(a1-6)[Man(a1-3)]Man(a1-6)[Man(a1-2)Man(a1-2)Man(a1-3)]Man(b1-4)GlcNAc(b1-4)GlcNAc
# Summary of the method: as §1
# [21] = target: Man(a1-3)[Man(a1-6)]Man
# Summary of the method: as §1
# [22] = target: Man(a1-3)[Man(a1-6)]Man(a1-6)[Man(a1-2)Man(a1-3)]Man(b1-4)GlcNAc(b1-4)GlcNAc
# Summary of the method: as §1
# [23] = target: Man(a1-3)[Man(a1-6)]Man(a1-6)[Man(a1-3)]Man
# Summary of the method: as §1
# [24] = target: Man(a1-3)[Man(a1-6)]Man(a1-6)[Man(a1-3)]Man(b1-4)GlcNAc(b1-4)GlcNAc
# Summary of the method: as §1
# [25] = target: Man(a1-3)[Man(a1-6)]Man(b1-4)GlcNAc(b1-4)GlcNAc
# Summary of the method: as §1
# [26] = target: Man(a1-3)[Man(a1-6)]Man(b1-4)GlcNAc(b1-4)[Fuc(a1-6)]GlcNAc
# Summary of the method: as §1
# [27] = target: Man(a1-6)Man
# Summary of the method: as §1
# [28] = target: Man(b1-4)GlcNAc
# Summary of the method: as §1
# [29] = target: MurNAc(b1-4)GlcNAc
# Summary of the method: as §1
# [30] = target: Neu5Ac(a2-3)Gal
# Summary of the method: as §1
# [31] = target: Neu5Ac(a2-3)Gal(b1-3)GalNAc
# Summary of the method: as §1
# [32] = target: Neu5Ac(a2-3)Gal(b1-3)GalNAc(b1-3)Gal(a1-4)Gal(b1-4)Glc
# Summary of the method: as §1
# [33] = target: Neu5Ac(a2-3)Gal(b1-3)GalNAc(b1-4)[Neu5Ac(a2-3)]Gal(b1-4)Glc
# Summary of the method: as §1
# [34] = target: Neu5Ac(a2-3)Gal(b1-3)GalNAc(b1-4)[Neu5Ac(a2-8)Neu5Ac(a2-3)]Gal(b1-4)Glc
# Summary of the method: as §1
# [35] = target: Neu5Ac(a2-3)Gal(b1-3)GalNAc6S
# Summary of the method: as §1
# [36] = target: Neu5Ac(a2-3)Gal(b1-3)GlcNAc
# Summary of the method: as §1
# [37] = target: Neu5Ac(a2-3)Gal(b1-3)GlcNAc(b1-2)Man
# Summary of the method: as §1
binder,measurement,setting,value
PX9937J-pdi-523-26-523 (Parabacteroides distasonis) (protein) EPVSSISDANYWKSPDLFKAFNIGLHGLLRSQSSYNIFVLGEPRSDIYGDQPFGGEATQGVERFSYNTINAEFTGISNFANFYTTLNQINLMIRRTNETDLLGEAEKNYYLGQAYGLRAYIYFHLLRSWGDVIITTEPTLGSELDISHLDKAASPASEVMDLIKKDIDASEKAFGGDYSYKQGKCYWSKPATLMLKGEVYLWSGRQMGGGTGDYTVAKTALQDLQQNGNLKLQEKFTDVFSFNNKENSEMIFALHSGKEDDFMMWRDYNWRNNMVPQREYMAGYCDETGTPFLEIPGYNLQGLMRYQVKKDHYLKSFREGDTRLKGTLKAVYKKHEDGTLEYIAPIQYKFQGTTLEGSNERSWYDDYPIYRYADALLLLAEAKALLGEDPSTEINAVRERAYGSEYFNAHKNEVAYPNDKGSFYNDNPFEAGDENVMEAILKERLREFFFEGKRWYDLRRFGKDYVLKYTTAQESRLLWPINEGALTNNPALKQTPGY,glycan array binding signal (z-score),[1],-0.106
same,glycan array binding signal (z-score),[2],-0.306
same,glycan array binding signal (z-score),[3],-0.15
same,glycan array binding signal (z-score),[4],-0.586
same,glycan array binding signal (z-score),[5],0.294
same,glycan array binding signal (z-score),[6],-0.296
same,glycan array binding signal (z-score),[7],-0.418
same,glycan array binding signal (z-score),[8],0.055
same,glycan array binding signal (z-score),[9],0.484
same,glycan array binding signal (z-score),[10],0.174
same,glycan array binding signal (z-score),[11],-0.418
same,glycan array binding signal (z-score),[12],-0.508
same,glycan array binding signal (z-score),[13],-0.284
same,glycan array binding signal (z-score),[14],-0.138
same,glycan array binding signal (z-score),[15],-0.606
same,glycan array binding signal (z-score),[16],-0.317
same,glycan array binding signal (z-score),[17],-0.355
same,glycan array binding signal (z-score),[18],-0.697
same,glycan array binding signal (z-score),[19],-0.355
same,glycan array binding signal (z-score),[20],-0.628
same,glycan array binding signal (z-score),[21],-0.455
same,glycan array binding signal (z-score),[22],-0.614
same,glycan array binding signal (z-score),[23],0.449
same,glycan array binding signal (z-score),[24],-0.173
same,glycan array binding signal (z-score),[25],-0.151
same,glycan array binding signal (z-score),[26],-0.221
same,glycan array binding signal (z-score),[27],-0.432
same,glycan array binding signal (z-score),[28],-0.728
same,glycan array binding signal (z-score),[29],-0.776
same,glycan array binding signal (z-score),[30],-0.304
same,glycan array binding signal (z-score),[31],-0.052
same,glycan array binding signal (z-score),[32],-0.08
same,glycan array binding signal (z-score),[33],-0.459
same,glycan array binding signal (z-score),[34],0.146
same,glycan array binding signal (z-score),[35],-0.115
same,glycan array binding signal (z-score),[36],-0.225
same,glycan array binding signal (z-score),[37],0.722

# From the supplement of paper PMC8728848
